One experiment deals with TlpQ-LBD (PA2654) (Pseudomonas aeruginosa, UniProt Q9I0I4). Briefly: biochemical.
The target of a further experiment is PctC-LBD (PA4307) (Pseudomonas aeruginosa, UniProt Q9HW93). The experiment in a line: biochemical.
Another experiment has as its system PctP-Tar (PA1608-Tar). The note with it: read-out: EC50 by FRET ^ a; attractant response, tethering buffer pH 7.0, Hill fit.
The target in a further experiment is PctP-LBD (PA1608) (Pseudomonas aeruginosa, UniProt Q9I3B3). Conditions: two symmetric sites, negative cooperativity, stronger site (second site weaker).
The target of a further experiment is PctA-LBD (PA4309) (Pseudomonas aeruginosa, UniProt G3XD24). Briefly: biochemical.

As a reminder, the Kd is the concentration at which binding is half-saturated. Read a low Kd as tighter binding. Take `NCCc1ccccc1` [2-Phenylethylamine]: at TlpQ-LBD (PA2654), binding was put at a Kd of 410 ± 12 µM. For the compound `NCCCCC(=O)O` [5-Aminovalerate], the affinity at PctC-LBD (PA4307), expressed as Kd, was 28 ± 2 µM. The term EC50 denotes the midpoint of the concentration-response curve. Regarding `Nc1ncnc2[nH]cnc12` [Adenine], the EC50 in the experiment on PctP-Tar (PA1608-Tar) was 39.5 ± 4.5 µM. For the compound `Nc1ncnc2c1ncn2[C@@H]1O[C@H](CO)[C@@H](O)[C@H]1O` [Adenosine], in the experiment on PctP-Tar (PA1608-Tar), the EC50 came out at 3.9 ± 0.8 µM. On the same count and under the same terms, the value for `Nc1nc2[nH]cnc2c(=O)[nH]1` [Guanine] was 0.6 ± 0.1 µM. As for `Nc1nc2c(ncn2[C@@H]2O[C@H](CO)[C@@H](O)[C@H]2O)c(=O)[nH]1` [Guanosine], the EC50 with PctP-Tar (PA1608-Tar) came out at 0.4 ± 0.05 µM. Regarding `O=c1[nH]cnc2nc[nH]c12` [Hypoxanthine], the 50% effective concentration (EC50) in the experiment with PctP-Tar (PA1608-Tar) stood at 1.6 ± 0.2 µM. For the same compound, at PctP-LBD (PA1608), the “KD by ITC ^ b” value amounted to 43 µM. For the compound `O=c1[nH]cnc2c1ncn2[C@@H]1O[C@H](CO)[C@@H](O)[C@H]1O` [Inosine], the EC50 in the experiment on PctP-Tar (PA1608-Tar) came out at 8.2 ± 1.9 µM. Turning to `NCCC[C@H](N)C(=O)O` [L-Ornithine], on PctA-LBD (PA4309), binding was put at a Kd of 7.1 ± 0.5 µM. The compound `COC(=O)CCCN` [Methyl 4-aminobutyrate] returned a Kd at PctC-LBD (PA4307) of 129 ± 2 µM. Compound `NCCc1ccc(O)cc1` [Tyramine] came in with a Kd on TlpQ-LBD (PA2654) of 100 ± 7 µM.

Values taken from paper PMC10653921 (mBio, 2023).
